Laboratory results reported in PubChem BioAssay AID504832 (National Center for Advancing Translational Sciences (NCATS), 2011).
The whole screen tested about 310,000 compounds, of which about 18,000 (5.8%) were called active. Inconclusive means that the source gave no clear call. Such entries were picked first, then a sample of the others. Calls follow the shape of the dose curve; as a rule, active = well fitted inhibition curve with a large enough effect; inconclusive = small, poorly fitted or top-dose-only effect, or another doubt; inactive = no such curve, though single readings can be large or run the other way. No potency is given beside an inconclusive call; the fits are too rough.

Assay: Primary qHTS for delayed death inhibitors of the malarial parasite plastid, 48 hour incubation
Details: P. falciparum luciferase growth in erythrocytes; series mostly up to 28.7 µM; activity change, negative = inhibition: at the top concentration
How it was run: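 A one-generation exposure of luciferase-tagged malaria parasites in RPMI 1640/Albumax erythrocyte culture, 37 C and 5% CO2. Inhibition is inferred from decreased luminescence after adding detection reagent.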
% is scaled to controls: 0 for no effect and ±100 for the full control effect; potency is read from the fitted curve at half-maximal effect; tags tell the direction and shape of the fitted curve.

Row | SMILES | Potency | activity change, negative = inhibition
1 | CCOC(=O)C1(CC2CCCCO2)CCN(C(=O)Nc2cccc(SC)c2)CC1 (configuration not stated) | inconclusive [inhibitor, partial curve] | –
2 | CC(C)(C)C(=O)Nc1ccccc1C(=O)Nc1cc(Cl)ccc1Cl | active: 11.7 µM | –
3 | Cn1cccc1Cc1nnc(SCC(=O)Nc2ccc(Cl)cc2)n1-c1ccc(F)cc1 | inconclusive [inhibitor, partial curve] | –
4 | COc1ccccc1CN1CCCC(N2CCN(c3ccc(F)cc3)CC2)C1 (configuration not stated) | inconclusive [inhibitor, full curve] | –
5 | CC#CC[N+](C)(C)CCCCCCCC | inconclusive [inhibitor, full curve] | –
6 | O=C(COc1cccc2cccnc12)N/N=C/c1cccn1-c1ccc(F)cc1 | inconclusive [inhibitor, single point] | –
7 | CCOc1ccc(NC(=O)CSc2nc3ccccc3nc2N2CCCC2)cc1 | – | inactive: -17%
8 | CN1CC(=O)N(CC(=O)Nc2cc(Cl)cc(Cl)c2)C1=O | inconclusive [inhibitor, partial curve, poor fit] | –
9 | COc1ccnc(Oc2ccc(F)cc2)c1C(=O)N/C=N/OCc1c(Cl)cccc1Cl | active: 11.7 µM | –
10 | Cc1nn(C)cc1CNCc1ccc(OCC(O)CN(C)Cc2ccccc2)cc1 (configuration not stated) | inconclusive [inhibitor, single point] | –
11 | C/C(=N\N=c1/sc2ccccc2n1C)c1ccccn1 | – | inactive: 138%
12 | COc1cccc(N2CCN(C(=O)C3C4C=CC5(CN(Cc6ccccc6Cl)C(=O)C35)O4)CC2)c1 (configuration not stated) | inconclusive [inhibitor, single point] | –
13 | CC1(C)CC2CC(C)(CN2S(=O)(=O)c2ccc(F)cc2F)C1 (configuration not stated) | inconclusive [inhibitor, single point] | –
14 | Cc1cc(C)n2nc(SCc3nnc(SCc4ccccc4)s3)nc2n1 | – | inactive: -6.01%
15 | CC1CCCCC1NC(=S)NC(=O)c1cccs1 (configuration not stated) | inconclusive [inhibitor, single point] | –
16 | O=C(NC(=S)Nc1ncccn1)c1ccccc1Cl | – | inactive: 20.3%
17 | O=C(COc1ccc(Br)cc1Br)NC(=S)N1CCCc2ccccc21 | inconclusive [inhibitor, single point] | –
18 | OC1(c2ccccn2)COc2ccccc2O1 (configuration not stated) | – | inactive: 28.8%
19 | COc1ccc(C(=O)NC(=S)NNC(=O)c2cnccn2)cc1 | active: 2.62 µM | –
20 | O=C(Nc1ccc(Cl)c(S(=O)(=O)N2CCOCC2)c1)c1ccccc1-c1ccc(C(F)(F)F)cc1 | inconclusive [inhibitor, single point] | –
21 | CC(C)(C)NC(=O)CSc1ccc(C(C)(C)C)cc1 | inconclusive [inhibitor, partial curve, poor fit] | –
22 | COc1ccc(C(=O)N2CC3(CC(c4cccc([N+](=O)[O-])c4)=NO3)C[C@H]2C(=O)NCC(N)=O)cc1 (some centres not stated) | inconclusive [inhibitor, full curve, poor fit] | –
23 | Cn1cccc1Cc1nnc(SCC(=O)N2CCc3ccccc32)n1CCc1ccccc1 | active: 13.1 µM | –

Row | SMILES | Potency | activity change, negative = inhibition
24 | COc1ccc(S(=O)(=O)N2CCN(C(=O)c3cc(C)oc3C)CC2)cc1 | inconclusive [inhibitor, single point] | –
25 | COC(=O)c1cc(NC(=O)c2cc(-c3ccc(C(F)(F)F)cc3)oc2C(F)(F)F)ccc1N1CCOCC1 | active: 2.08 µM | –
26 | CCOc1ccccc1OCCC(=O)N1CCN(S(=O)(=O)c2ccccc2[N+](=O)[O-])CC1 | active: 11.7 µM | –
27 | COc1ccc(C(c2nnnn2C2CCCC2)N2CCN(c3ccccc3)CC2)cc1 (configuration not stated) | active: 9.28 µM | –
28 | CCn1cc(C(=O)OCc2ccccc2)c(=O)c2ccc(C)nc21 | inconclusive [inhibitor, partial curve, poor fit] | –
29 | COc1cc(C2C(C(=O)c3ccc(C)o3)=C(O)C(=O)N2CCN2CCOCC2)ccc1OCCC(C)C (configuration not stated) | inconclusive [inhibitor, single point] | –
30 | O=C(NC1CC1)c1sc2ccccc2c1Cl | – | inactive: 65.6%
31 | COc1ccccc1N1CC(C(=O)NCCC2=CCCCC2)CC1=O (configuration not stated) | inconclusive [inhibitor, single point] | –
32 | Cc1c(C(=O)Nc2ccc3c(c2)OCCO3)sc2ncnc(N3CCCCC3C)c12 (configuration not stated) | inconclusive [inhibitor, partial curve] | –
33 | Cc1ccc(OCC(=O)N/N=C\c2ccco2)c(C)c1 | inconclusive [inhibitor, partial curve] | –
34 | O=C(COC(=O)c1ccc(O)cc1O)c1ccc(Cl)cc1 | inconclusive [inhibitor, single point] | –
35 | COc1ccc(CN(C(=O)c2ccccc2OC)C2CCS(=O)(=O)C2)cc1 (configuration not stated) | inconclusive [inhibitor, partial curve, poor fit] | –
36 | CCCCC(=O)O[C@]1(C(=O)CO)[C@H](C)C[C@H]2[C@@H]3CCC4=CC(=O)C=C[C@]4(C)[C@@]3(F)[C@@H](O)C[C@@]21C | inconclusive [inhibitor, partial curve] | –
37 | COn1c(-n2nc(C)cc2C)nc2ccccc2c1=O | inconclusive [inhibitor, partial curve, poor fit] | –
38 | CC(C)N(Cc1nccn1C)C(=O)c1cc(COc2ccc(F)cc2Cl)on1 | inconclusive [inhibitor, full curve, poor fit] | –
39 | CCOc1ccc(NC(=O)COc2ccc(S(=O)(=O)N3CCCC3)cc2)cc1 | inconclusive [inhibitor, partial curve] | –
40 | O=C(NC12CC3CC(CC(C3)C1)C2)c1cc([N+](=O)[O-])ccc1N1CCOCC1 | inconclusive [inhibitor, full curve, poor fit] | –
41 | Cc1ccc(F)cc1NC(=O)C1CCCN(c2ncccn2)C1 (configuration not stated) | inconclusive [inhibitor, partial curve, poor fit] | –
42 | CCCN1C(=O)/C(=C\C=C2/C=CN(CC)c3ccccc32)SC1=S | inconclusive [inhibitor, single point] | –
43 | CCC(C(=O)NCc1ccco1)N(C(=O)CNS(=O)(=O)c1ccc(F)cc1)c1ccccc1F (configuration not stated) | inconclusive [inhibitor, partial curve, poor fit] | –
44 | COc1ccc(-c2ccc(C#N)c(SCC(=O)NCc3ccco3)n2)cc1OC | inconclusive [inhibitor, full curve] | –
45 | CCCC(=O)Nc1cccc(C(=O)Nc2ccccc2OCC)c1 | inconclusive [inhibitor, single point] | –
46 | CCCCN(CC)Cc1c(C)[nH]c2c(ccc3ccccc32)c1=O | inconclusive [inhibitor, single point] | –

Row | SMILES | Potency | activity change, negative = inhibition
47 | COc1cc(CN2CCCCCC2)cc(Br)c1O | inconclusive [inhibitor, single point] | –
48 | COc1ccc(C(=O)OCC#CCSc2nnc(-c3cccc4ccccc34)o2)cc1 | – | inactive: 17.4%
49 | COc1ccc(NC(=O)COC(=O)c2cc(Cl)ccc2O)cc1S(=O)(=O)N1CCCCC1 | inconclusive [inhibitor, single point] | –
50 | O=C(Nc1cc(Oc2ccccc2)cc([N+](=O)[O-])c1)C12CC3CC(C1)CC(n1cnc(Cl)n1)(C3)C2 | inconclusive [inhibitor, partial curve, poor fit] | –
51 | COCCCN1CN=C(Nc2nc3ccccc3o2)NC1 | – | inactive: 207%
52 | CCN(CC)CCCn1c2c(c(SCC(=O)Nc3cccc(C(C)=O)c3)nc1=O)CCC2 | – | inactive: 23.4%
53 | COc1ccccc1N1CCN(C(CNS(=O)(=O)c2ccccc2)c2ccccc2)CC1 (configuration not stated) | inconclusive [inhibitor, single point] | –
54 | CCOc1ccc(/C=N/NC(=O)Cc2csc(Nc3cccc(C(F)(F)F)c3)n2)cc1 | active: 9.28 µM | –
55 | Cn1c(=O)[nH]c(=O)c2c1nc(Br)n2Cc1ccccc1Cl | inconclusive [inhibitor, single point] | –
56 | O=C(CSc1nnnn1-c1cccnc1)Nc1ccccc1F | – | inactive: 33.5%
57 | Cc1cccc(OCc2nnc(SCC(=O)Nc3cccc(C(=O)N4CCOCC4)c3)n2C)c1 | – | inactive: -2.73%
58 | Cc1cc(C(=O)CSc2nnnn2-c2ccccc2)c(C)n1-c1ccc2c(c1)OCO2 | active: 10.4 µM | –
59 | Nc1cc2c3c(cccc3c1)C(=O)N(CCN1CCCC1)C2=O | active: 11.7 µM | –
60 | CCOC(=O)C1=C(COC(=O)/C=C/c2ccc(OC)cc2)NC(=O)NC1C (configuration not stated) | inconclusive [inhibitor, single point] | –
61 | O=C(NNc1ccc(C(F)(F)F)cc1[N+](=O)[O-])c1ccc(NS(=O)(=O)c2ccc(F)cc2)cc1 | inconclusive [inhibitor, single point] | –
62 | CCO/N=C1\C(=O)N(c2ccccc2)c2ccccc21 | inconclusive [inhibitor, single point] | –
63 | Cc1cccc(OCc2nnc(SCC(=O)N3CCN(c4ccccc4)CC3)o2)c1C | inconclusive [inhibitor, partial curve] | –
64 | O=C(NC(Cc1ccccc1)C(=O)O)/C(=C/c1ccc(F)cc1)NC(=O)c1ccccc1 (configuration not stated) | – | inactive: 1.38%
65 | N#Cc1ccc(CN2CCN(C(=O)c3cccc(S(=O)(=O)N4CCCCCC4)c3)CC2)cc1 | inconclusive [inhibitor, single point] | –
66 | Cc1ccccc1C(=O)N1CCN(c2ccc([N+](=O)[O-])c(NCc3ccco3)c2)CC1 | active: 13.1 µM | –
67 | COc1cccc(C(C(=O)NC2CCCC2)N(C(=O)c2ccco2)c2ccccc2)c1OC (configuration not stated) | active: 9.28 µM | –
